# Data as given in PubChem BioAssay AID588855 (National Center for Advancing Translational Sciences (NCATS), 2011).
# In all, about 410,000 compounds went through this assay and about 5,000 (1.2%) were called active. The inconclusive results got no clear call from the source; some entries with a clear call stand among them for comparison. Calls follow the shape of the dose curve; as a rule, active = well fitted inhibition curve with a large enough effect; inconclusive = small, poorly fitted or top-dose-only effect; inactive = no such curve, though single readings can be large or run the other way. Where the call is inconclusive, the potency comes from a doubtful curve fit.
# Assay: qHTS for Inhibitors of TGF-b; also: nearly all actives have a fitted effect of over 65% in size
# Conditions: HepG2 CAGA-GFP TGF-b/SMAD3 reporter, GFP fluorescence, 18 h, TGF-beta stimulated, 500 pg/mL final; series mostly up to 46.1 µM; activity, negative = inhibition: at the top concentration
# Method in brief: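 Using HEPG2 CAGA-GFP reporter cells at 1000 cells/well, we pinned test compounds, stimulated with recombinant TGF-beta (500 pg/mL final) and measured total well GFP after 18 h.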
# % is scaled to controls: 0 for no effect and ±100 for the full control effect; potency is read from the fitted curve at half-maximal effect; tags tell the direction and shape of the fitted curve.
Compound,Potency,"activity, negative = inhibition"
O=C(NCCN1CCOCC1)c1ccc(/C=C2\Sc3ccccc3N(Cc3ccc(F)cc3)C2=O)cc1,"inconclusive: 25.1 µM [inhibitor, single point]",–
COc1cc(N=Nc2ccccc2C(=O)O)ccc1O,–,inactive: 0.927%
FC(F)(F)c1cc(CCN2C(=S)NC[C@@H]2Cc2ccccc2)cc(C(F)(F)F)c1,"inconclusive: 35.5 µM [inhibitor, single point]",–
O=C1/C(=C/c2ccc(O)c(O)c2)SC(=S)N1Nc1ccccc1,"inconclusive: 35.5 µM [inhibitor, single point]",–
Cc1ccc(C(=O)OCC(=O)N(C)c2ccccc2)c(C)c1,–,inactive: -22.8%
CCC(C(=O)Nc1cccc(C#N)c1)n1c(=O)c(-c2ccccc2NC(C)=O)nc2ccccc21 (centres undefined),"inconclusive: 31.6 µM [inhibitor, partial curve, poor fit]",–
CCN(CC)CCNC(=O)c1ccc(NC(=O)c2cccc(S(=O)(=O)N3CCc4ccccc43)c2)cc1,"inconclusive: 35.5 µM [inhibitor, single point]",–
Cc1coc2c(C)c3oc(=O)c(CCC(=O)NCCCn4ccnc4)c(C)c3cc12,"inconclusive: 14.1 µM [inhibitor, partial curve, poor fit]",–
Cc1ccc(C2SCC(=O)N2Cc2ccccc2)cc1 (centres undefined),–,inactive: -16.7%
CCN(c1ccc(NC(=O)COC(=O)c2ccc(S(=O)(=O)N3CCCC3)cc2)cc1)C(C)C,–,inactive: 30%
Cc1cccc(-c2noc(CCC(=O)NCc3ccccc3)n2)c1,–,inactive: 10.1%
CC1=NN(c2cccc(C(=O)O)c2)C(=O)/C1=C\C=C\c1ccco1,"inconclusive: 8.91 µM [inhibitor, partial curve, poor fit]",–
CCOC(=O)C1=C(C)NC(=S)NC1c1ccc(-c2ccc(Cl)cc2)o1 (centres undefined),"inconclusive: 35.5 µM [inhibitor, single point]",–
Cc1ccc(NC(=O)Cn2c(-c3ccc4c(c3)OCO4)cn(-c3ccccc3)c2=O)cc1,"inconclusive: 35.5 µM [inhibitor, single point]",–
Cc1ccc(CN2c3ccccc3S(=O)(=O)c3ccccc32)cc1,"inconclusive: 35.5 µM [inhibitor, single point]",–
CN(Cc1ccccc1)CC(O)COc1ccc(CNCc2cc3ccccc3s2)cc1 (centres undefined),"inconclusive: 22.4 µM [inhibitor, partial curve, poor fit]",–
COc1ccc(/C=C2\SC(=S)N(CCCC(=O)N3CCN(C)CC3)C2=O)cc1,"inconclusive: 35.5 µM [inhibitor, single point]",–
CCNC(=O)c1ccccc1-c1nc(-c2ccccc2OC)no1,–,inactive: 19.7%
Cc1c(CCNC(=O)Cc2ccccc2)sc2nc(-c3ccc(F)cc3)nn12,"inconclusive: 0.447 µM [inhibitor, full curve, poor fit]",–
Cc1nc2ccccc2n1C1CC(=O)N(Cc2ccccc2)C1=O (centres undefined),–,inactive: -13.5%
O=C(CN1CCN(Cc2ccc(Cl)cc2)C1=O)NCc1ccc(F)cc1,"inconclusive: 7.08 µM [inhibitor, partial curve]",–
CC(=O)Nc1cc(-c2cccc(C(=O)NCCO)c2)cn2c(-c3cccc(C(F)(F)F)c3)cnc12,"inconclusive: 35.5 µM [inhibitor, single point]",–

Compound,Potency,"activity, negative = inhibition"
CCn1ncc(/C=C/C(=O)Nc2c(C)nn(CC)c2C)c1C,–,inactive: -12.3%
O=[N+]([O-])c1cc(S(=O)(=O)Nc2ccc(Cl)cc2)ccc1N/N=C/c1ccncc1,"inconclusive: 3.16 µM [inhibitor, single point]",–
Cc1ccc(NC(=O)CCCn2c(=O)c3cccn3c3cccnc32)c(Cl)c1,"inconclusive: 17.8 µM [inhibitor, single point]",–
CCOC(=O)Cc1csc(NC(=O)CS(=O)(=O)Cc2ccccc2)n1,"inconclusive: 35.5 µM [inhibitor, single point]",–
Cc1ccc(C2=Nc3ccccc3N(CC(=O)Nc3cccc(F)c3)C(=O)C2)cc1C,"inconclusive: 3.98 µM [inhibitor, full curve, poor fit]",–
OCCNCc1ccc(OCc2ccc(Cl)cc2Cl)cc1,"inconclusive: 35.5 µM [inhibitor, single point]",–
COC(=O)C1=C(C)NC(=S)N(C(C)=O)C1c1ccc(OC)c(OC)c1 (centres undefined),"inconclusive: 10 µM [inhibitor, partial curve, poor fit]",–
O=C(NCCCN1CCCCCC1)c1ccc(N2CCCC2=O)cc1,"inconclusive: 3.16 µM [inhibitor, single point]",–
Cc1nc(C(C)NC(=O)c2cc(COc3ccc(C)c(C)c3)on2)c(C)s1 (centres undefined),–,inactive: 7.48%
CC1CC(=O)C2=C(C1)Nc1nc3ccccc3n1C2c1cccnc1 (centres undefined),"inconclusive: 35.5 µM [inhibitor, single point]",–
O=C(NNC(=S)NC1CCCCC1)c1sc2ccccc2c1Cl,"inconclusive: 22.4 µM [inhibitor, single point]",–
CN1c2ccccc2-c2ccccc2S1(=O)=O,"inconclusive: 7.94 µM [inhibitor, partial curve, poor fit]",–
CN(c1ccc(O)cc1)c1nc(O)c(C2=c3ccccc3=NC2=O)s1,"inconclusive: 35.5 µM [inhibitor, single point]",–
COc1ccc(CNC(=O)COCc2cc(-c3cccs3)on2)cc1OC,"inconclusive: 5.62 µM [inhibitor, single point]",–
Cc1ccc(NC(=O)C2(c3ccc([N+](=O)[O-])cc3)CCCC2)cc1,"inconclusive: 1.58 µM [inhibitor, full curve]",–
NN1C(=O)/C(=C\c2ccco2)SC1=S,"inconclusive: 0.708 µM [inhibitor, partial curve, poor fit]",–
Cc1ccc2nc(N(Cc3cccnc3)C(=O)C3COc4ccccc4O3)sc2c1 (centres undefined),–,inactive: -0.794%
COc1ccc(OC)c(Nc2ncnc3ccc(Br)cc23)c1,"inconclusive: 25.1 µM [inhibitor, single point]",–
CC(C)(C)N(Cc1ccccc1)C(=O)COC(=O)C1=NN(c2ccccc2)C(=O)CC1,"inconclusive: 5.62 µM [inhibitor, single point]",–
Cc1ccc(CSc2cn(CC(=O)N3CCCCC3)c3ccccc23)cc1,"inconclusive: 35.5 µM [inhibitor, single point]",–
Cc1cc(NC(=O)c2ccccc2-c2ccccc2)ccc1Br,"inconclusive: 35.5 µM [inhibitor, single point]",–
CCOc1ccc(-c2cnc(NCc3ccc(OC)cc3OC)n2C)cc1,–,inactive: -19.3%

Compound,Potency,"activity, negative = inhibition"
O=C(NCc1ccc(F)cc1)c1ccc(NC(=O)N2CC3CCCN3c3ccccc32)cc1 (centres undefined),–,inactive: -26.1%
Cn1nc(C(=O)N2CCN(c3ccccc3F)CC2)c2c1-c1ccccc1SC2,"inconclusive: 15.8 µM [inhibitor, single point]",–
Cc1ccc(NC(=O)c2cccn2-c2nnc(N3CCCCC3)s2)cc1Cl,"inconclusive: 0.158 µM [inhibitor, full curve]",–
COc1ccccc1C(=O)Oc1cc(N)n(S(=O)(=O)c2ccccc2)n1,"inconclusive: 15.8 µM [inhibitor, single point]",–
O=C(NCCCCNC(=O)c1cccnc1)c1cccnc1,"inconclusive: 3.98 µM [inhibitor, single point]",–
CCCCCCn1c(=O)n2n(c1=O)[C@@H]1CN(S(=O)(=O)c3ccc(C)cc3)C[C@]1(O)[C@@H](OC(=O)NCC1CCCCC1)C2,"inconclusive: 35.5 µM [inhibitor, single point]",–
Nc1nnc(CCS(=O)(=O)c2ccc(Br)cc2)s1,–,inactive: 8.18%
Cc1ccc(C)c(NC(=S)NNC(=O)c2csc(C(C)C)c2)c1,"inconclusive: 1.78 µM [inhibitor, partial curve]",–
COc1ccc(CCNC(=O)CSc2ccc3ccccc3c2)cc1OC,–,inactive: -0.848%
CCC(CC)C(=O)Nc1c(C(=O)N2CCN(c3ccccc3)CC2)oc2ccccc12,"inconclusive: 14.1 µM [inhibitor, single point]",–
Cc1ccc(CNS(=O)(=O)c2ccc(-c3cnc(C4CC4)o3)cc2)cc1,"inconclusive: 20 µM [inhibitor, partial curve, poor fit]",–
Cc1cc([N+](=O)[O-])ccc1NC(=O)c1sc2ncn(CC(=O)N3CCOCC3)c(=O)c2c1C,"inconclusive: 3.16 µM [inhibitor, single point]",–
CCCCCc1cc(=O)oc2c(C(CCN3CCCC(C)C3)c3cc(OC)c(OC)c(OC)c3)c(OC)cc(OC)c12 (centres undefined),"inconclusive: 35.5 µM [inhibitor, single point]",–
CC(C)C[C@H]1COCCS(=O)(=O)N1Cc1cccc(C(F)(F)F)c1,"inconclusive: 0.447 µM [inhibitor, full curve, poor fit]",–
Cc1cccc(NC(=O)CN2C(=O)CSC2=O)c1,"inconclusive: 1.41 µM [inhibitor, partial curve, poor fit]",–
CC(C)(C)c1ccc(S(=O)(=O)NC(=O)C2(C)CCN2C(=O)C2(c3ccc(Cl)cc3)CC2)cc1 (centres undefined),"inconclusive: 11.2 µM [inhibitor, partial curve, poor fit]",–
C=CCOc1ccc(C2NC(=S)NC(C)=C2C(=O)c2ccccc2)cc1OC (centres undefined),–,inactive: 0.429%
Cc1cccc(C)c1-n1nnnc1C1(Nc2ccccc2)CCCCC1,"inconclusive: 35.5 µM [inhibitor, single point]",–
Brc1ccc2ncnc(Nc3cccc4ccccc34)c2c1,"inconclusive: 15.8 µM [inhibitor, partial curve, poor fit]",–
O=C(NC1CCN(C(=S)NCc2ccco2)CC1)c1cccc(F)c1,"inconclusive: 1.26 µM [inhibitor, partial curve]",–
